Measurements: the supplement of paper PMC10369915
The list shows a part of the results. Cut-off read from the data, not from the text of the source: active = 3.2 or more and inactive = the rest. Only a few entries rise above the background.

B1: E41L1_HUMAN_343 (peptide)
chain: IKIRPGEYEQFESTI
B2: EFHD2_HUMAN_83 (peptide)
chain: SRRVFNPYTEFKEFS
B3: ACLY_HUMAN_682 (peptide)
chain: SRTTDGVYEGVAIGG
B4: ELMO1_HUMAN_511 (peptide)
chain: SKLQNLSYTEILKIR
B5: ELMO1_HUMAN_720_YA (peptide)
chain: IPKEPSNYDFVADCN
B6: EMD_HUMAN_182 (peptide)
chain: SSLDLSYYPTSSSTS
B7: EMD_HUMAN_182_YA (peptide)
chain: SSLDLSAYPTSSSTS
B8: EMD_HUMAN_41_YA (peptide)
chain: AEKKIFEYETQRRRL
B9: EMD_HUMAN_94_YA (peptide)
chain: SKGANDDYAEESAFT
B10: EMD_HUMAN_99 (peptide)
chain: DDYYEESYFTTRTYG
B11: ENOA_HUMAN_287 (peptide)
chain: YKSFIKDYPVVSIED
B12: EPHA1_HUMAN_599 (peptide)
chain: DKLWLKPYVDLQAYE
B13: EPHA1_HUMAN_599_YA (peptide)
chain: DKLWLKPYVDLQAAE
B14: EPHA2_HUMAN_594_YA (peptide)
chain: TAVDPHTYEDPNQAV
B15: ADH1B_HUMAN_35 (peptide)
chain: EVAPPKAYEVRIKMV
B16: EPHA3_HUMAN_602 (peptide)
chain: TYVDPHTYEDPTQAV
B17: EPHA3_HUMAN_937 (peptide)
chain: EIFTGVEYSSCDTIA
B18: EPHA5_HUMAN_650 (peptide)
chain: KLPGVRTYIDPHTYE

What follows are binders tested against SHP2 C-SH2 domain E139D (assay: enrichment score (SH2-bound / input frequency) (ratio); bacterial display of known human phosphotyrosine sites (pTyr-Var adds point mutants) read by sequencing; higher = stronger binding; tyrosines were phosphorylated by kinases first). Settings: peptide library: Human pTyr.
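Note: displayed peptides selected on beads carrying the immobilized SH2 domain, with library peptides lacking any tyrosine serving as negative controls.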

Enrichment score, inactive:
B1 0.842, B2 1.04, B3 0.691, B4 1.31, B5 0.927, B6 0.604, B7 0.564, B8 1.04, B9 0.732, B10 1.22, B11 1.16, B12 1.11, B13 1.02, B14 0.755, B15 1.31, B16 0.727, B17 1.09, B18 0.633

The binders below were run against SHP2 C-SH2 domain wild-type in the same assay as above. Settings: peptide library: Human pTyr.

Enrichment score, inactive:
B1 0.779, B2 1.25, B3 0.515, B4 1.69, B5 0.731, B6 0.584, B7 0.47, B8 1.14, B9 0.648, B10 0.903, B11 0.687, B12 1.08, B13 1.01, B14 0.871, B15 1.13, B16 0.409, B17 0.957, B18 0.565

Each binder was assayed against SHP2 N-SH2 domain L43F in the same assay as above. Settings: peptide library: Human pTyr.

Enrichment score, inactive:
B1 1.61, B2 0.946, B3 0.62, B4 1.43, B5 0.888, B6 0.6, B7 0.516, B8 1.84, B9 0.77, B10 0.807, B11 0.789, B12 1.06, B13 0.984, B14 0.873, B15 1.09, B16 0.637, B17 0.965, B18 0.527

Each binder was assayed against SHP2 N-SH2 domain T42A in the same assay as above. Settings: peptide library: Human pTyr.

Enrichment score, inactive:
B1 0.702, B2 0.99, B3 0.551, B4 1.65, B5 0.797, B6 0.474, B7 0.465, B8 1.4, B9 0.604, B10 0.932, B11 0.993, B12 1.21, B13 1.02, B14 1.01, B15 1.22, B16 0.698, B17 0.997, B18 0.799

Each binder was assayed against SHP2 N-SH2 domain T52S in the same assay as above. Settings: peptide library: Human pTyr.

Enrichment score, inactive:
B1 0.884, B2 0.993, B3 0.618, B4 1.3, B5 0.859, B6 0.646, B7 0.386, B8 1.82, B9 0.581, B10 0.926, B11 0.873, B12 1.04, B13 1.28, B14 0.715, B15 1.37, B16 0.508, B17 1.12, B18 0.663

The binders below were run against SHP2 N-SH2 domain wild-type in the same assay as above. Settings: peptide library: Human pTyr.

Enrichment score, inactive:
B1 0.913, B2 1.12, B3 0.703, B4 1.42, B5 1.09, B6 0.516, B7 0.53, B8 1.07, B9 0.9, B10 0.948, B11 1.05, B12 1.23, B13 1, B14 0.418, B15 1.42, B16 0.651, B17 0.964, B18 0.535
